# Measurements: the supplement of paper PMC8728848
# Some of the results follow.
# How the values were obtained:
# Assay in all cases: glycan array binding signal (z-score within array); higher = stronger binding
# Settings in all cases: glycan notation: IUPAC condensed, linker removed
# [1] = target: Man(a1-2)Man(a1-3)[Man(a1-6)]Man(a1-6)[Man(a1-2)Man(a1-3)]Man(b1-4)GlcNAc(b1-4)GlcNAc
# Outline: (§1)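 The Consortium for Functional Glycomics database supplied 3228 glycan arrays, of which those lacking an available protein sequence were dropped. The binding signal, a within-array Z-score, was averaged across arrays of the same protein sequence and across linkers. Negative scores can be read as non-binding.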
# [2] = target: Man(a1-2)Man(a1-6)[Man(a1-3)]Man(a1-6)[Man(a1-2)Man(a1-2)Man(a1-3)]Man
# Outline: as §1
# [3] = target: Man(a1-2)Man(a1-6)[Man(a1-3)]Man(a1-6)[Man(a1-2)Man(a1-2)Man(a1-3)]Man(b1-4)GlcNAc(b1-4)GlcNAc
# Outline: as §1
# Man(a1-3)[Man(a1-6)]Man = target: Man(a1-3)[Man(a1-6)]Man
# Outline: as §1
# [4] = target: Man(a1-3)[Man(a1-6)]Man(a1-6)[Man(a1-2)Man(a1-3)]Man(b1-4)GlcNAc(b1-4)GlcNAc
# Outline: as §1
# [5] = target: Man(a1-3)[Man(a1-6)]Man(a1-6)[Man(a1-3)]Man
# Outline: as §1
# [6] = target: Man(a1-3)[Man(a1-6)]Man(a1-6)[Man(a1-3)]Man(b1-4)GlcNAc(b1-4)GlcNAc
# Outline: as §1
# [7] = target: Man(a1-3)[Man(a1-6)]Man(b1-4)GlcNAc(b1-4)GlcNAc
# Outline: as §1
# Man(a1-6)Man = target: Man(a1-6)Man
# Outline: as §1
# Man(b1-4)GlcNAc = target: Man(b1-4)GlcNAc
# Outline: as §1
# Neu5Ac(a2-3)Gal = target: Neu5Ac(a2-3)Gal
# Outline: as §1
# [8] = target: Neu5Ac(a2-3)Gal(b1-3)GalNAc
# Outline: as §1
# [9] = target: Neu5Ac(a2-3)Gal(b1-3)GalNAc(b1-3)Gal(a1-4)Gal(b1-4)Glc
# Outline: as §1
# [10] = target: Neu5Ac(a2-3)Gal(b1-3)GalNAc(b1-4)[Neu5Ac(a2-3)]Gal(b1-4)Glc
# Outline: as §1
# [11] = target: Neu5Ac(a2-3)Gal(b1-3)GalNAc(b1-4)[Neu5Ac(a2-8)Neu5Ac(a2-3)]Gal(b1-4)Glc
# Outline: as §1
# [12] = target: Neu5Ac(a2-3)Gal(b1-3)GalNAc6S
# Outline: as §1
# [13] = target: Neu5Ac(a2-3)Gal(b1-3)GlcNAc
# Outline: as §1
# [14] = target: Neu5Ac(a2-3)Gal(b1-3)GlcNAc(b1-3)Gal(b1-3)GlcNAc
# Outline: as §1
# [15] = target: Neu5Ac(a2-3)Gal(b1-3)GlcNAc(b1-3)Gal(b1-4)GlcNAc
# Outline: as §1
# [16] = target: Neu5Ac(a2-3)Gal(b1-3)GlcNAc(b1-3)GalNAc
# Outline: as §1
# [17] = target: Neu5Ac(a2-3)Gal(b1-3)GlcNAc6S
# Outline: as §1
# [18] = target: Neu5Ac(a2-3)Gal(b1-3)[Fuc(a1-4)]GlcNAc
# Outline: as §1
# [19] = target: Neu5Ac(a2-3)Gal(b1-3)[Fuc(a1-4)]GlcNAc(b1-3)Gal(b1-3)[Fuc(a1-4)]GlcNAc
# Outline: as §1
# [20] = target: Neu5Ac(a2-3)Gal(b1-3)[Fuc(a1-4)]GlcNAc(b1-3)Gal(b1-4)[Fuc(a1-3)]GlcNAc
# Outline: as §1
# [21] = target: Neu5Ac(a2-3)Gal(b1-3)[Neu5Ac(a2-3)Gal(b1-4)]GlcNAc
# Outline: as §1
# [22] = target: Neu5Ac(a2-3)Gal(b1-3)[Neu5Ac(a2-6)]GalNAc
# Outline: as §1
# Neu5Ac(a2-3)Gal(b1-4)Glc = target: Neu5Ac(a2-3)Gal(b1-4)Glc
# Outline: as §1
# [23] = target: Neu5Ac(a2-3)Gal(b1-4)GlcNAc
# Outline: as §1
# [24] = target: Neu5Ac(a2-3)Gal(b1-4)GlcNAc(b1-2)Man(a1-3)[GlcNAc(b1-2)Man(b1-4)GlcNAc(b1-2)Man(a1-6)]Man(b1-4)GlcNAc(b1-4)GlcNAc
# Outline: as §1
# [25] = target: Neu5Ac(a2-3)Gal(b1-4)GlcNAc(b1-2)Man(a1-3)[Neu5Ac(a2-6)Gal(b1-4)GlcNAc(b1-2)Man(a1-6)]Man(b1-4)GlcNAc(b1-4)GlcNAc
# Outline: as §1
# [26] = target: Neu5Ac(a2-3)Gal(b1-4)GlcNAc(b1-3)Gal
# Outline: as §1
# [27] = target: Neu5Ac(a2-3)Gal(b1-4)GlcNAc(b1-3)Gal(b1-3)GlcNAc
# Outline: as §1
# [28] = target: Neu5Ac(a2-3)Gal(b1-4)GlcNAc(b1-3)Gal(b1-4)GlcNAc
# Outline: as §1
# [29] = target: Neu5Ac(a2-3)Gal(b1-4)GlcNAc(b1-3)Gal(b1-4)GlcNAc(b1-3)Gal(b1-4)GlcNAc
# Outline: as §1
# [30] = target: Neu5Ac(a2-3)Gal(b1-4)GlcNAc(b1-3)Gal(b1-4)[Fuc(a1-3)]GlcNAc
# Outline: as §1
# [31] = target: Neu5Ac(a2-3)Gal(b1-4)GlcNAc(b1-3)GalNAc
# Outline: as §1
# [32] = target: Neu5Ac(a2-3)Gal(b1-4)GlcNAc(b1-6)[Gal(b1-3)]GalNAc
# Outline: as §1
# [33] = target: Neu5Ac(a2-3)Gal(b1-4)GlcNAc(b1-6)[Neu5Ac(a2-3)Gal(b1-3)]GalNAc
# Outline: as §1
# [34] = target: Neu5Ac(a2-3)Gal(b1-4)GlcNAc6S
# Outline: as §1
# [35] = target: Neu5Ac(a2-3)Gal(b1-4)[Fuc(a1-3)]GlcNAc
# Outline: as §1
# [36] = target: Neu5Ac(a2-3)Gal(b1-4)[Fuc(a1-3)]GlcNAc(b1-3)Gal
# Outline: as §1
# [37] = target: Neu5Ac(a2-3)Gal(b1-4)[Fuc(a1-3)]GlcNAc(b1-3)Gal(b1-4)GlcNAc
# Outline: as §1
# [38] = target: Neu5Ac(a2-3)Gal(b1-4)[Fuc(a1-3)]GlcNAc(b1-3)Gal(b1-4)[Fuc(a1-3)]GlcNAc(b1-3)Gal(b1-4)[Fuc(a1-3)]GlcNAc
# Outline: as §1
# [39] = target: Neu5Ac(a2-3)Gal(b1-4)[Fuc(a1-3)]GlcNAc(b1-3)GalNAc
# Outline: as §1
# [40] = target: Neu5Ac(a2-3)Gal(b1-4)[Fuc(a1-3)]GlcNAc(b1-6)[Gal(b1-3)]GalNAc
# Outline: as §1
binder,measurement,setting,value
"CVN (Nostoc ellipsosporum), P81180 (protein) LGKFSQTCYNSAIQGSVLTSTCERTNGGYNTSSIDLNSVIENVDGSLKWQPSNFIETCRNTQLAGSSELAAECKTRAQQFVSTKINLDDHIANIDGTLKYE",glycan array binding signal (z-score),[1],5.58
same,glycan array binding signal (z-score),[2],7.23
same,glycan array binding signal (z-score),[3],6.39
same,glycan array binding signal (z-score),Man(a1-3)[Man(a1-6)]Man,-0.299
same,glycan array binding signal (z-score),[4],4.22
same,glycan array binding signal (z-score),[5],-0.303
same,glycan array binding signal (z-score),[6],4.48
same,glycan array binding signal (z-score),[7],-0.296
same,glycan array binding signal (z-score),Man(a1-6)Man,-0.304
same,glycan array binding signal (z-score),Man(b1-4)GlcNAc,-0.304
same,glycan array binding signal (z-score),Neu5Ac(a2-3)Gal,-0.306
same,glycan array binding signal (z-score),[8],-0.18
same,glycan array binding signal (z-score),[9],-0.272
same,glycan array binding signal (z-score),[10],-0.263
same,glycan array binding signal (z-score),[11],-0.066
same,glycan array binding signal (z-score),[12],-0.262
same,glycan array binding signal (z-score),[13],-0.308
same,glycan array binding signal (z-score),[14],-0.195
same,glycan array binding signal (z-score),[15],-0.295
same,glycan array binding signal (z-score),[16],-0.269
same,glycan array binding signal (z-score),[17],-0.304
same,glycan array binding signal (z-score),[18],-0.304
same,glycan array binding signal (z-score),[19],0.775
same,glycan array binding signal (z-score),[20],0.614
same,glycan array binding signal (z-score),[21],-0.308
same,glycan array binding signal (z-score),[22],0.563
same,glycan array binding signal (z-score),Neu5Ac(a2-3)Gal(b1-4)Glc,-0.299
same,glycan array binding signal (z-score),[23],-0.306
same,glycan array binding signal (z-score),[24],-0.305
same,glycan array binding signal (z-score),[25],-0.305
same,glycan array binding signal (z-score),[26],0.197
same,glycan array binding signal (z-score),[27],-0.307
same,glycan array binding signal (z-score),[28],-0.3
same,glycan array binding signal (z-score),[29],-0.296
same,glycan array binding signal (z-score),[30],-0.297
same,glycan array binding signal (z-score),[31],-0.285
same,glycan array binding signal (z-score),[32],-0.306
same,glycan array binding signal (z-score),[33],-0.294
same,glycan array binding signal (z-score),[34],-0.309
same,glycan array binding signal (z-score),[35],-0.268
same,glycan array binding signal (z-score),[36],-0.307
same,glycan array binding signal (z-score),[37],-0.084
same,glycan array binding signal (z-score),[38],0.496
same,glycan array binding signal (z-score),[39],0.185
same,glycan array binding signal (z-score),[40],-0.179
